# Laboratory results: the supplement of paper PMC8728848
# The list shows a part of the results.
# Legend:
# Experiment in all cases: glycan array binding signal (z-score within array); higher = stronger binding
# Conditions in all cases: glycan notation: IUPAC condensed, linker removed
# Gal(b1-4)Glc = molecular target: Gal(b1-4)Glc
# How it was run: (§1)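 The Consortium for Functional Glycomics database supplied 3228 glycan arrays, of which those lacking an available protein sequence were dropped. The binding signal, a within-array Z-score, was averaged across arrays of the same protein sequence and across linkers. Negative scores can be read as non-binding.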
# Gal(b1-4)Glc6S = molecular target: Gal(b1-4)Glc6S
# How it was run: as §1
# Gal(b1-4)GlcNAc = molecular target: Gal(b1-4)GlcNAc
# How it was run: as §1
# [1] = molecular target: Gal(b1-4)GlcNAc(a1-6)Gal(b1-4)GlcNAc
# How it was run: as §1
# Gal(b1-4)GlcNAc(b1-2)Man = molecular target: Gal(b1-4)GlcNAc(b1-2)Man
# How it was run: as §1
# [2] = molecular target: Gal(b1-4)GlcNAc(b1-2)Man(a1-3)Man(b1-4)GlcNAc(b1-4)GlcNAc
# How it was run: as §1
# [3] = molecular target: Gal(b1-4)GlcNAc(b1-2)Man(a1-3)[Gal(b1-4)GlcNAc(b1-2)Man(a1-6)]Man(b1-4)GlcNAc(b1-4)GlcNAc
# How it was run: as §1
# [4] = molecular target: Gal(b1-4)GlcNAc(b1-2)Man(a1-3)[Gal(b1-4)GlcNAc(b1-2)Man(a1-6)]Man(b1-4)GlcNAc(b1-4)[Fuc(a1-6)]GlcNAc
# How it was run: as §1
# [5] = molecular target: Gal(b1-4)GlcNAc(b1-2)Man(a1-3)[Gal(b1-4)GlcNAc(b1-2)Man(a1-6)][Gal(b1-4)GlcNAc(b1-4)]Man(b1-4)GlcNAc(b1-4)[Fuc(a1-6)]GlcNAc
# How it was run: as §1
# [6] = molecular target: Gal(b1-4)GlcNAc(b1-2)Man(a1-3)[Gal(b1-4)GlcNAc(b1-2)Man(a1-6)][GlcNAc(b1-4)]Man(b1-4)GlcNAc(b1-4)[Fuc(a1-6)]GlcNAc
# How it was run: as §1
# [7] = molecular target: Gal(b1-4)GlcNAc(b1-2)Man(a1-3)[GlcNAc(b1-2)Man(a1-6)]Man(b1-4)GlcNAc(b1-4)GlcNAc
# How it was run: as §1
# [8] = molecular target: Gal(b1-4)GlcNAc(b1-2)Man(a1-3)[GlcNAc(b1-4)][Gal(b1-4)GlcNAc(b1-2)Man(a1-6)]Man(b1-4)GlcNAc(b1-4)GlcNAc
# How it was run: as §1
# [9] = molecular target: Gal(b1-4)GlcNAc(b1-2)Man(a1-3)[Man(a1-6)]Man(b1-4)GlcNAc(b1-4)GlcNAc
# How it was run: as §1
# [10] = molecular target: Gal(b1-4)GlcNAc(b1-2)Man(a1-6)Man(b1-4)GlcNAc(b1-4)GlcNAc
# How it was run: as §1
# [11] = molecular target: Gal(b1-4)GlcNAc(b1-2)Man(a1-6)[GlcNAc(b1-2)Man(a1-3)]Man(b1-4)GlcNAc(b1-4)GlcNAc
# How it was run: as §1
# [12] = molecular target: Gal(b1-4)GlcNAc(b1-2)Man(a1-6)[Man(a1-3)]Man(b1-4)GlcNAc(b1-4)GlcNAc
# How it was run: as §1
# [13] = molecular target: Gal(b1-4)GlcNAc(b1-2)[Gal(b1-4)GlcNAc(b1-4)]Man(a1-3)[Gal(b1-4)GlcNAc(b1-2)Man(a1-6)]Man(b1-4)GlcNAc(b1-4)GlcNAc
# How it was run: as §1
# [14] = molecular target: Gal(b1-4)GlcNAc(b1-2)[Gal(b1-4)GlcNAc(b1-4)]Man(a1-3)[Gal(b1-4)GlcNAc(b1-2)[Gal(b1-4)GlcNAc(b1-6)]Man(a1-6)]Man(b1-4)GlcNAc(b1-4)GlcNAc
# How it was run: as §1
# [15] = molecular target: Gal(b1-4)GlcNAc(b1-2)[Gal(b1-4)GlcNAc(b1-4)]Man(a1-3)[GlcNAc(b1-4)][Gal(b1-4)GlcNAc(b1-2)Man(a1-6)]Man(b1-4)GlcNAc(b1-4)GlcNAc
# How it was run: as §1
# [16] = molecular target: Gal(b1-4)GlcNAc(b1-2)[Gal(b1-4)GlcNAc(b1-4)]Man(a1-3)[GlcNAc(b1-4)][Gal(b1-4)GlcNAc(b1-2)[Gal(b1-4)GlcNAc(b1-6)]Man(a1-6)]Man(b1-4)GlcNAc(b1-4)GlcNAc
# How it was run: as §1
# [17] = molecular target: Gal(b1-4)GlcNAc(b1-2)[Gal(b1-4)GlcNAc(b1-6)]Man(a1-6)[Gal(b1-4)GlcNAc(b1-2)Man(a1-3)]Man(b1-4)GlcNAc(b1-4)GlcNAc
# How it was run: as §1
# [18] = molecular target: Gal(b1-4)GlcNAc(b1-2)[Gal(b1-4)GlcNAc(b1-6)]Man(a1-6)[Gal(b1-4)GlcNAc(b1-2)Man(a1-3)]Man(b1-4)GlcNAc(b1-4)[Fuc(a1-6)]GlcNAc
# How it was run: as §1
# [19] = molecular target: Gal(b1-4)GlcNAc(b1-2)[Gal(b1-4)GlcNAc(b1-6)]Man(a1-6)[GlcNAc(b1-4)][Gal(b1-4)GlcNAc(b1-2)Man(a1-3)]Man(b1-4)GlcNAc(b1-4)GlcNAc
# How it was run: as §1
# [20] = molecular target: Gal(b1-4)GlcNAc(b1-2)[Gal(b1-4)GlcNAc(b1-6)]Man(a1-6)[GlcNAc(b1-4)][Gal(b1-4)GlcNAc(b1-2)[Gal(b1-4)GlcNAc(b1-4)]Man(a1-3)]Man(b1-4)GlcNAc(b1-4)[Fuc(a1-6)]GlcNAc
# How it was run: as §1
# [21] = molecular target: Gal(b1-4)GlcNAc(b1-3)Gal(b1-3)GalNAc
# How it was run: as §1
# [22] = molecular target: Gal(b1-4)GlcNAc(b1-3)Gal(b1-3)GlcNAc
# How it was run: as §1
# [23] = molecular target: Gal(b1-4)GlcNAc(b1-3)Gal(b1-4)Glc
# How it was run: as §1
# [24] = molecular target: Gal(b1-4)GlcNAc(b1-3)Gal(b1-4)GlcNAc
# How it was run: as §1
# [25] = molecular target: Gal(b1-4)GlcNAc(b1-3)Gal(b1-4)GlcNAc(b1-2)Man(a1-3)[Gal(b1-4)GlcNAc(b1-3)Gal(b1-4)GlcNAc(b1-2)Man(a1-6)]Man(b1-4)GlcNAc(b1-4)GlcNAc
# How it was run: as §1
# [26] = molecular target: Gal(b1-4)GlcNAc(b1-3)Gal(b1-4)GlcNAc(b1-2)Man(a1-3)[Gal(b1-4)GlcNAc(b1-3)Gal(b1-4)GlcNAc(b1-2)Man(a1-6)]Man(b1-4)GlcNAc(b1-4)[Fuc(a1-6)]GlcNAc
# How it was run: as §1
# [27] = molecular target: Gal(b1-4)GlcNAc(b1-3)Gal(b1-4)GlcNAc(b1-2)[Gal(b1-4)GlcNAc(b1-3)Gal(b1-4)GlcNAc(b1-6)]Man(a1-6)[Gal(b1-4)GlcNAc(b1-3)Gal(b1-4)GlcNAc(b1-2)Man(a1-3)]Man(b1-4)GlcNAc(b1-4)GlcNAc
# How it was run: as §1
# [28] = molecular target: Gal(b1-4)GlcNAc(b1-3)Gal(b1-4)GlcNAc(b1-2)[Gal(b1-4)GlcNAc(b1-3)Gal(b1-4)GlcNAc(b1-6)]Man(a1-6)[Gal(b1-4)GlcNAc(b1-3)Gal(b1-4)GlcNAc(b1-2)Man(a1-3)]Man(b1-4)GlcNAc(b1-4)[Fuc(a1-6)]GlcNAc
# How it was run: as §1
# [29] = molecular target: Gal(b1-4)GlcNAc(b1-3)Gal(b1-4)GlcNAc(b1-3)Gal(b1-4)GlcNAc
# How it was run: as §1
# [30] = molecular target: Gal(b1-4)GlcNAc(b1-3)Gal(b1-4)GlcNAc(b1-3)Gal(b1-4)GlcNAc(b1-2)Man(a1-3)[Gal(b1-4)GlcNAc(b1-3)Gal(b1-4)GlcNAc(b1-3)Gal(b1-4)GlcNAc(b1-2)Man(a1-6)]Man(b1-4)GlcNAc(b1-4)GlcNAc
# How it was run: as §1
# [31] = molecular target: Gal(b1-4)GlcNAc(b1-3)Gal(b1-4)GlcNAc(b1-3)Gal(b1-4)GlcNAc(b1-2)Man(a1-3)[Gal(b1-4)GlcNAc(b1-3)Gal(b1-4)GlcNAc(b1-3)Gal(b1-4)GlcNAc(b1-2)Man(a1-6)]Man(b1-4)GlcNAc(b1-4)[Fuc(a1-6)]GlcNAc
# How it was run: as §1
# [32] = molecular target: Gal(b1-4)GlcNAc(b1-3)Gal(b1-4)GlcNAc(b1-3)Gal(b1-4)GlcNAc(b1-2)[Gal(b1-4)GlcNAc(b1-3)Gal(b1-4)GlcNAc(b1-3)Gal(b1-4)GlcNAc(b1-6)]Man(a1-6)[Gal(b1-4)GlcNAc(b1-3)Gal(b1-4)GlcNAc(b1-3)Gal(b1-4)GlcNAc(b1-2)Man(a1-3)]Man(b1-4)GlcNAc(b1-4)[Fuc(a1-6)]GlcNAc
# How it was run: as §1
# [33] = molecular target: Gal(b1-4)GlcNAc(b1-3)Gal(b1-4)GlcNAc(b1-3)Gal(b1-4)GlcNAc(b1-3)Gal(b1-4)GlcNAc(b1-2)Man(a1-3)[Gal(b1-4)GlcNAc(b1-3)Gal(b1-4)GlcNAc(b1-3)Gal(b1-4)GlcNAc(b1-3)Gal(b1-4)GlcNAc(b1-2)Man(a1-6)]Man(b1-4)GlcNAc(b1-4)GlcNAc
# How it was run: as §1
binder,measurement,setting,value
GS7807E-bfa-538-23-538 (Bacteroides fragilis) (protein) TDSFESFNTNEAGFDNDSKKQDFNYYGIPLGIIQQGIYFNYDWGSGKNWPFQTMQNLGADLFSGYVHDFNPFNEGKNNSTYYMMDGWNGSTWDNTYGYIMPEVQKSETINEKDNIGFFGITKILKVELMHRLSDLYGPIVYTQFGSKTGSTPDTQQEAYKAFFNDLDTGIAKIREYQKANPDIESFAKFDILMPQGKRTFSEWIRFANSLRLRLAVRIAMADSKLAVAEAQKALTDEEGLLEGNDEVVAVSTSSGYTNPFGEINKAWGEVFMNANMESLLVGYEDPRMEKYFDKATGSDATSLIDYKGTYKGIRQGTGFSHKNYNGHSKSTITQQTDAVLMTPAEVWFLRAEAALRGWSSESVKDCYEKGVKASFAQWGAAGAEAYLESDRKPSDYVDAFKAANNVKAVNTLTPKWDDAAGNEDKLGRIITQKWLAMFPEGGEAWAEQRRTGYPRLFPVLVNQSEGTVDTNLGPRRLNFFVGIKTTNPEQYTQLVNALGGIDNCGTRLWWDTGRNF,glycan array binding signal (z-score),Gal(b1-4)Glc,-0.011
same,glycan array binding signal (z-score),Gal(b1-4)Glc6S,0.734
same,glycan array binding signal (z-score),Gal(b1-4)GlcNAc,-0.208
same,glycan array binding signal (z-score),[1],-0.268
same,glycan array binding signal (z-score),Gal(b1-4)GlcNAc(b1-2)Man,-0.486
same,glycan array binding signal (z-score),[2],0.489
same,glycan array binding signal (z-score),[3],0.153
same,glycan array binding signal (z-score),[4],2.42
same,glycan array binding signal (z-score),[5],2.37
same,glycan array binding signal (z-score),[6],0.506
same,glycan array binding signal (z-score),[7],-0.651
same,glycan array binding signal (z-score),[8],0.282
same,glycan array binding signal (z-score),[9],0.193
same,glycan array binding signal (z-score),[10],2.4
same,glycan array binding signal (z-score),[11],2.11
same,glycan array binding signal (z-score),[12],-0.079
same,glycan array binding signal (z-score),[13],3.32
same,glycan array binding signal (z-score),[14],-0.328
same,glycan array binding signal (z-score),[15],0.844
same,glycan array binding signal (z-score),[16],0.622
same,glycan array binding signal (z-score),[17],1.14
same,glycan array binding signal (z-score),[18],0.713
same,glycan array binding signal (z-score),[19],0.637
same,glycan array binding signal (z-score),[20],-0.314
same,glycan array binding signal (z-score),[21],0.715
same,glycan array binding signal (z-score),[22],-0.306
same,glycan array binding signal (z-score),[23],-0.446
same,glycan array binding signal (z-score),[24],-0.483
same,glycan array binding signal (z-score),[25],0.271
same,glycan array binding signal (z-score),[26],2.56
same,glycan array binding signal (z-score),[27],1.76
same,glycan array binding signal (z-score),[28],2.08
same,glycan array binding signal (z-score),[29],-0.255
same,glycan array binding signal (z-score),[30],1.59
same,glycan array binding signal (z-score),[31],2.1
same,glycan array binding signal (z-score),[32],4.56
same,glycan array binding signal (z-score),[33],1.91
